In publication PMC5744998:
No constants are given. Whether binding was seen depends on the method and setting. For part of these data: In cells and extracts the contact can be indirect. Some results given as binding are weak or reduced against the parent protein; the word gives no strength.

Sequences of proteins named here, by UniProt entry; tags and fusion partners are left off. A change or cut given only in a name is not applied to a line headed by its entry. A line that says so, or that is headed by a name, gives the form on record, which may keep a tag or linker.
UniProt Q99814: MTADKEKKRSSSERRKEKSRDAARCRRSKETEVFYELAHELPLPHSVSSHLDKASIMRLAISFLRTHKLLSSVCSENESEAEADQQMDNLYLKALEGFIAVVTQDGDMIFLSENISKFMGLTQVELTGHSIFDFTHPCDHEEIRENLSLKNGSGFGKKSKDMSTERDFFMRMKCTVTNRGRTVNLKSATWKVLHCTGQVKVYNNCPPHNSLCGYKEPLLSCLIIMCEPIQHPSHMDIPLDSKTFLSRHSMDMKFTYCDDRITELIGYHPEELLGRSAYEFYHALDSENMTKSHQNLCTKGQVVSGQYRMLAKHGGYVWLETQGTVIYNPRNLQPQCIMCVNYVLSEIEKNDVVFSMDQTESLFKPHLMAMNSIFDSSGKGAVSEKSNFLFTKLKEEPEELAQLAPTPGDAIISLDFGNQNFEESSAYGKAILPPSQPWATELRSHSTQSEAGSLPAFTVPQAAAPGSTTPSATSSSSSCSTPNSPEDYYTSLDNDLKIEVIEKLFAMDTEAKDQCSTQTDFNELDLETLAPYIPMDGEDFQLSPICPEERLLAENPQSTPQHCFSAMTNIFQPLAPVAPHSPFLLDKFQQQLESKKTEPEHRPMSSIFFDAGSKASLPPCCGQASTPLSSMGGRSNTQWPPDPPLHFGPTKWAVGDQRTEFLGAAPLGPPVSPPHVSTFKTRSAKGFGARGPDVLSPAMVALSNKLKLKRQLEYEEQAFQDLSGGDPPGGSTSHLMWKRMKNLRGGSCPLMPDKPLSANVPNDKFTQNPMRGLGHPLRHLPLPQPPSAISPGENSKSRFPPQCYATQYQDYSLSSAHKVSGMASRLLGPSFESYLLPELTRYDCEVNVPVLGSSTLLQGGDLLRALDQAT
ectopic arginine-substituted mutant (R3) human HIF-2α, V5- and HA-tagged, in HT1080 knockdown/rescue cells (Q99814, form named): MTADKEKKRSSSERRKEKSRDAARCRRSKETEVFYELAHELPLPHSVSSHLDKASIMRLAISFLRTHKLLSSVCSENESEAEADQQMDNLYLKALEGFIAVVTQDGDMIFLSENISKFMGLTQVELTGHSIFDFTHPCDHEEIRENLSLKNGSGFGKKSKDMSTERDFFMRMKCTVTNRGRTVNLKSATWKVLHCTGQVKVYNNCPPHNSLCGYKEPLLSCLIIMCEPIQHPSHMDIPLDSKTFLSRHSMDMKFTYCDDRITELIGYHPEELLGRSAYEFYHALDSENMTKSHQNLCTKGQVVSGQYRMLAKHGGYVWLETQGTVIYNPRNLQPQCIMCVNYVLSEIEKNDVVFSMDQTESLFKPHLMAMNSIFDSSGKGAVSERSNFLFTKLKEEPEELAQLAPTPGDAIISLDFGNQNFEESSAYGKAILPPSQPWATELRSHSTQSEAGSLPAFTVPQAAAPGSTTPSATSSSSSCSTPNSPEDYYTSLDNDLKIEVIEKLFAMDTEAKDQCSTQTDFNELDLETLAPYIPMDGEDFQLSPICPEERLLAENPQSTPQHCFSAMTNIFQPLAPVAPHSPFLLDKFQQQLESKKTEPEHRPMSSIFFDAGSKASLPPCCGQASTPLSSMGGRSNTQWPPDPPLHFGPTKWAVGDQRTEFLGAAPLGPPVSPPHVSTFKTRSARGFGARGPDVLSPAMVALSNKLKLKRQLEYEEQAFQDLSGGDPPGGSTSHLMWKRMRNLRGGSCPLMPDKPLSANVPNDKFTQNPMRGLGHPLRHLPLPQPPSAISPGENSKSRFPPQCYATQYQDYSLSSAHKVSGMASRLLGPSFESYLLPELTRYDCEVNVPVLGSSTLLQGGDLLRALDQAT
UniProt Q09472: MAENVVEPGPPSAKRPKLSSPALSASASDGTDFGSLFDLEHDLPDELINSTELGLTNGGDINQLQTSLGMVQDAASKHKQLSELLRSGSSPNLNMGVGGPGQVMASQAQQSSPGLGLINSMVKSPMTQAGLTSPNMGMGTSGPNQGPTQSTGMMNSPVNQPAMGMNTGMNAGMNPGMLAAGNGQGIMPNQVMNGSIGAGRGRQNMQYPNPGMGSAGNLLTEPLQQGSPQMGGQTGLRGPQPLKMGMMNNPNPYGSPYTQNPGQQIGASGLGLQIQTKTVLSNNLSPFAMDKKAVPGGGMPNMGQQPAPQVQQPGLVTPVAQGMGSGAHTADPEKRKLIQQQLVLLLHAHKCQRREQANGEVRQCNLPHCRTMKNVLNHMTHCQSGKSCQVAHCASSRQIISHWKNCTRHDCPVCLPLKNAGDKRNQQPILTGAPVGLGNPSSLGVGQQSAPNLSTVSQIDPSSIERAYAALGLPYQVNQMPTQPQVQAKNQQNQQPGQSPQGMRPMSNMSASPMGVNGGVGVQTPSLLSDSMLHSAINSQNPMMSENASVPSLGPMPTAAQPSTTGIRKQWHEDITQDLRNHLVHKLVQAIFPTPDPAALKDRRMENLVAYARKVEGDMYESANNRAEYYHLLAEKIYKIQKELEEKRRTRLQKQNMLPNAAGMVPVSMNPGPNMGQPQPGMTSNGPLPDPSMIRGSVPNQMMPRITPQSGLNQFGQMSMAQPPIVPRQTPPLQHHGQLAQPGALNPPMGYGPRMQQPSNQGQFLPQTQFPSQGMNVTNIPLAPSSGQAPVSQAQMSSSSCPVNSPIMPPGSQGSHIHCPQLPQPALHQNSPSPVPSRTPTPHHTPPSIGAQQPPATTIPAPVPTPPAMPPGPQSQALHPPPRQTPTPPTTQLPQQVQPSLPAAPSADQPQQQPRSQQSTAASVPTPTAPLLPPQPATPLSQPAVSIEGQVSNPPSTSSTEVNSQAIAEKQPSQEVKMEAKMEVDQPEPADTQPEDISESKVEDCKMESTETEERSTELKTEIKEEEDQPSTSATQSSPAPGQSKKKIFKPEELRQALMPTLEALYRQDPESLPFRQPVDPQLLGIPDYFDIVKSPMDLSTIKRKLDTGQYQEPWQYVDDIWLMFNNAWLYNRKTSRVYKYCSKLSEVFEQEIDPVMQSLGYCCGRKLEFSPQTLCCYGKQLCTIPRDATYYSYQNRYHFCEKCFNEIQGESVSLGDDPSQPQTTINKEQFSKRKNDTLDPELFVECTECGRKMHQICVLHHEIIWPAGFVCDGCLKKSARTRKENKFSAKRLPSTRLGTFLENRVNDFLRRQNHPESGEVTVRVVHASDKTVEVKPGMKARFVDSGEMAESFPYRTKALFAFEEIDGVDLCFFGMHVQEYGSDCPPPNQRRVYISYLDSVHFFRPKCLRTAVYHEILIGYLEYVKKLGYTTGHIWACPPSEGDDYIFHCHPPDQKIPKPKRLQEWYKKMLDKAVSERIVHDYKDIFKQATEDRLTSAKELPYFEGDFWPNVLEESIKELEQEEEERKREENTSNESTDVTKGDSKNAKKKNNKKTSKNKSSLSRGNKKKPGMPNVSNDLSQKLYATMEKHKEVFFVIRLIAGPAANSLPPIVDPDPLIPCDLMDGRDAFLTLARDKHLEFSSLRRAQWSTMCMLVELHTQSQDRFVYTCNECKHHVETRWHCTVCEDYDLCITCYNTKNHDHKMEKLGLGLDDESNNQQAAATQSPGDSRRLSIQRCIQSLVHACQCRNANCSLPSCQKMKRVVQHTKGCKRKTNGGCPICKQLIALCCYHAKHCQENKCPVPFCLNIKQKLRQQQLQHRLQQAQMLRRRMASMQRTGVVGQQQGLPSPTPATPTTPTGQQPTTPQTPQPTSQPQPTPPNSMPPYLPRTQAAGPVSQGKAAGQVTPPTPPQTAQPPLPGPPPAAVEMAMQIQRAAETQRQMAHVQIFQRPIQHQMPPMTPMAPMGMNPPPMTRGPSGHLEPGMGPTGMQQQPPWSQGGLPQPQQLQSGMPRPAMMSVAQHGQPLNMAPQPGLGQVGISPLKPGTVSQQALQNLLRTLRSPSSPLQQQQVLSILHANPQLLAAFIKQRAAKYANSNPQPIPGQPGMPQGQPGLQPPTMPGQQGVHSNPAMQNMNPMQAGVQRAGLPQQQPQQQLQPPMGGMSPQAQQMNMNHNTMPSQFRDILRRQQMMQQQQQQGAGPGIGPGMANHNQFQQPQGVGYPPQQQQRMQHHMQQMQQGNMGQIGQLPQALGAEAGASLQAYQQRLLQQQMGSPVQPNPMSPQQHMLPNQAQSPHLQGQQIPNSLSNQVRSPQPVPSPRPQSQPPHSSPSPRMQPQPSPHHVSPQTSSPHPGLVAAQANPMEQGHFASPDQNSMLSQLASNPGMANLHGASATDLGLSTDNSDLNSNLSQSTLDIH
UniProt Q92793: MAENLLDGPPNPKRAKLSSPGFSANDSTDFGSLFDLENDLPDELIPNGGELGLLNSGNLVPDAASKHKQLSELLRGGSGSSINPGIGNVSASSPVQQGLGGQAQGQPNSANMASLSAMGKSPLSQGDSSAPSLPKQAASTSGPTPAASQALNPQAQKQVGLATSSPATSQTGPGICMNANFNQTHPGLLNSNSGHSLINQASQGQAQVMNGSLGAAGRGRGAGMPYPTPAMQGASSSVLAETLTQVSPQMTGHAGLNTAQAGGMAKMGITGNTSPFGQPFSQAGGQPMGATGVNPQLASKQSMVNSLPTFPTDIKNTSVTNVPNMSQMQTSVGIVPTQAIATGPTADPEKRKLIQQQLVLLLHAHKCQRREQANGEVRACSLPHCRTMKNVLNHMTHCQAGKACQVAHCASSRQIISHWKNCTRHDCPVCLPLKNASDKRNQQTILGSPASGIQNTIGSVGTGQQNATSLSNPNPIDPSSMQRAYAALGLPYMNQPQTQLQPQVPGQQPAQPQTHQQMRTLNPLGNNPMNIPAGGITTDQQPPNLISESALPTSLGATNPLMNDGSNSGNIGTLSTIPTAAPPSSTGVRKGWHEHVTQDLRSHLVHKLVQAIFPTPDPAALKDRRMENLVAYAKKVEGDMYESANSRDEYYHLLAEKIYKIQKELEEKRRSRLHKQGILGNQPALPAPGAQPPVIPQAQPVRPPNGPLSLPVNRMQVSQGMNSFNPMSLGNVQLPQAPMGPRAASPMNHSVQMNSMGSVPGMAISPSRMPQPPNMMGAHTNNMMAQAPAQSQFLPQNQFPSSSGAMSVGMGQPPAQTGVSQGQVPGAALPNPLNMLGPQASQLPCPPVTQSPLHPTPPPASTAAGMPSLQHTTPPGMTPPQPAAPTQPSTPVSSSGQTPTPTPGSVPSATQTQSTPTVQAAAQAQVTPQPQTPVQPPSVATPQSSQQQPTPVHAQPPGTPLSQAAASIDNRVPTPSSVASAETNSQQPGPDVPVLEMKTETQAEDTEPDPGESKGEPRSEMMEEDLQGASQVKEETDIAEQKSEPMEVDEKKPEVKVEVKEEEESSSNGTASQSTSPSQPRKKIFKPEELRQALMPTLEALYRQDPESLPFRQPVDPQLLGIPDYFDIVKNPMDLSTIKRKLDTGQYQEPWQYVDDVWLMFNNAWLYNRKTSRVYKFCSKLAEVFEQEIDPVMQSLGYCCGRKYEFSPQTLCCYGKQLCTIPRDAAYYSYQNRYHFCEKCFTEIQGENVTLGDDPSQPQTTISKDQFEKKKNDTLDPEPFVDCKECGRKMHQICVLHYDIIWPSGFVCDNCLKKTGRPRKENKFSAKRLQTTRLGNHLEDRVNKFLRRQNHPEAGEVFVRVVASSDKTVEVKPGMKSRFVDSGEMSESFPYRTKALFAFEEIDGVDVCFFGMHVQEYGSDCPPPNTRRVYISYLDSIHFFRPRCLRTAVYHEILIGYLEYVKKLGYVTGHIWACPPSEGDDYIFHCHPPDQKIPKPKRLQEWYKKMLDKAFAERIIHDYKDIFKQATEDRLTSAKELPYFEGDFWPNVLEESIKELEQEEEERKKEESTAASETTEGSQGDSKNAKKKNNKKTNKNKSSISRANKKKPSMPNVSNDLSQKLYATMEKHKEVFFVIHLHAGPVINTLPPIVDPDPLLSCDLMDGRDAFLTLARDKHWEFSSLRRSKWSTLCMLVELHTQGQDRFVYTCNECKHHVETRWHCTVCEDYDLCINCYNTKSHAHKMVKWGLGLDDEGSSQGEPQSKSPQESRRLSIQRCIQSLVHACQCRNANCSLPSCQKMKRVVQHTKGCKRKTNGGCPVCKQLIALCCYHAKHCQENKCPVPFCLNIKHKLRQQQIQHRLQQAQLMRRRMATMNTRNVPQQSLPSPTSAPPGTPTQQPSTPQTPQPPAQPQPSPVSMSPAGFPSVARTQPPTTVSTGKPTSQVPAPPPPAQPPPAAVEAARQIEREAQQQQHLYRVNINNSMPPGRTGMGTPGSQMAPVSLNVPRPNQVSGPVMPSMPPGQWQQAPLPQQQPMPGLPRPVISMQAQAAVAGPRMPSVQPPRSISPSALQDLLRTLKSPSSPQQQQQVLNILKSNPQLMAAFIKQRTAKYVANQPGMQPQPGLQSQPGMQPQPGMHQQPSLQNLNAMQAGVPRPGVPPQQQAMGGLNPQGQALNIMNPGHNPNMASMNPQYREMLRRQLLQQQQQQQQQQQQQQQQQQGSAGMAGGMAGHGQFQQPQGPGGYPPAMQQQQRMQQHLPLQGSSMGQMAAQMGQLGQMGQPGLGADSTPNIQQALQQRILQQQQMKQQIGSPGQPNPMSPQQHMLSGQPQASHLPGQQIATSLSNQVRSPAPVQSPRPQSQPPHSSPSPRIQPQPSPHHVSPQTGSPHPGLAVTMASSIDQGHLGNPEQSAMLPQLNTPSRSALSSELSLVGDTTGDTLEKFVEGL

Tests used:
[1] = molecular target: ectopic wild-type (K3) human HIF-2α, V5- and HA-tagged, in HT1080 knockdown/rescue cells (human) (UniProt Q99814); experiment: co-IP; ectopic K3 or R3 HIF-2α precipitated from stably transformed knockdown/rescue HT1080 cells after 0, 4, 16 hr hypoxia (1% O2) or 0, 2, 24 hr low glucose (1 mM); blots for endogenous Cbp or p300
[2] = molecular target: ectopic arginine-substituted mutant (R3) human HIF-2α, V5- and HA-tagged, in HT1080 knockdown/rescue cells (human) (UniProt Q99814); experiment: as above
[3] = molecular target: endogenous HIF-2α of HT1080 cells (human (endogenous in HT1080)) (UniProt Q99814); experiment: sequential chromatin immunoprecipitation (Re-ChIP); HT1080 knockdown/rescue cells under control, hypoxia or low glucose; first ChIP with anti-V5 (ectopic HIF-2α) or anti-HIF-2α (endogenous), second ChIP with anti-Cbp; qPCR of HIF-responsive regulatory regions of HIF-2 target genes
[4] = molecular target: ectopic wild-type (K3) human HIF-2α, V5- and HA-tagged, in HT1080 knockdown/rescue cells (human) (UniProt Q99814); experiment: as above

| binding [1] | binding [2] | binding [3] | binding [4] | Substance |
| --- | --- | --- | --- | --- |
| binds | binds | – | – | endogenous p300 of HT1080 cells (from UniProt Q09472 1-2414) |
| binds | no binding | binds | binds | endogenous Creb binding protein (Cbp) of HT1080 cells (from UniProt Q92793 1-2442) |
